From publication PMC9917132, “Tenebrio molitor as a Simple and Cheap Preclinical Pharmacokinetic and Toxicity Model” (International Journal of Molecular Sciences, 2023)

Experiments:
[1] = Acute toxicity (LD50) in adult T. molitor Coleoptera (TMC) after injection in the hemocoel; details: Tenebrio molitor, in vivo, 2000 mg/kg
Procedure: The literature was carefully studied to identify the starting dose of a panel of drugs; however, when no data were available, the protocol described in Figure 1 was adopted, using 1 TMC and starting from the dose of 200 mg/kg.
The protocol depicted in Figure 2 has been adopted to determine LD50, starting from the opportune dose determined as described above. A panel of 20 drugs available on the market, including antivirals, antibiotics and the representative drugs for several pharmaceutical classes, was analyzed (Table 2).
Figure 2 Flowchart for LD50 determination. Starting from the opportune initial dose, LD50 was determined by changing the dose based on results and increasing the number of […] for final determinations. GHS cat.: Globally Harmonized System category. The numbers on the circles represent the number of deaths in exemplars.
TMC were randomly selected for toxicity assessment. TMC older than 3 days were discarded.
Acute toxicity was determined following the Organization for Economic Cooperation and Development (OECD) guidelines for acute toxicity of chemicals. All the available information on the test substance was considered to select the toxic dose of test compounds. Data were collected considering LD50 already reported for humans, rats and mice or, when possible, insects (e.g., Galleria mellonella). The initial dose, expressed in mg/kg, was calculated as the lowest LD50 reported in the literature. When no data were found in the literature, the starting dose of 200 mg/kg was used and the range-finding study was conducted with 1 TMC, by adapting OECD guidelines (Figure 1). To perform LD50 calculation study, 5 TMC were injected with the selected dose, and mortality was recorded daily for 7 days. Each experiment included 1 control group treated with DMSO. […] If 1 or less TMC died, the experiment was performed with a higher dose. If 2 or 3 TMC died, the experiment was repeated by re-testing the initial dose with 10 TMC. […] The experiment continued until a toxic dose was determined.

Rats = details: cited from earlier work
Mice = details: cited from earlier work
[2] = PK literature data; cited from earlier work

## CN1C(=O)CN=C(c2ccccc2)c2cc(Cl)ccc21 [Diazepam]
[1]
  LD50 at 7 days: 50 mg/kg
Rats
  LD50 Rats ip: 46.5 mg/kg
  LD50 Rats iv: 32 mg/kg
Mice
  LD50 Mice ip: 37 mg/kg
  LD50 Mice iv: 25 mg/kg

## CN(C)CCOC(c1ccccc1)c1ccccc1 [Diphenhydramine]
[1]
  LD50 at 7 days: 50 mg/kg
Rats
  LD50 Rats iv: 42 mg/kg
Mice
  LD50 Mice ip: 56 mg/kg

## NS(=O)(=O)c1cc(C(=O)O)c(NCc2ccco2)cc1Cl [Furosemide]
[2]
  Vd: 0.07 to 0.2 L/kg
[1]; other: injection in the hemocoel
  LD50 at 7 days: 300 mg/kg
Rats
  LD50 Rats ip: 800 mg/kg
  LD50 Rats iv: 800 mg/kg
Mice
  LD50 Mice iv: 308 mg/kg
